# Experimental data published in the supplement of paper PMC8728848.
# The list shows a part of the results.
# B1: PX15618A-bth-503-24-503 (Bacteroides thetaiotaomicron) (protein)
# chain: NKSEDKLSGDDFWAQGNETNAEAFLLSIYNSFRNATMSQRPFLTYSGDMRCAPITAYSTGDKYVAYLANNDMGELRNTYPDDARGGLIMQWDVFYTAIQDANILLAEIDKVPGMDELKRSRFKAEAIFMRSLSYFFIVRAFGDVPYYTNAYNEAPLPRTNMVIVLQNCLADLQPLLDDDPGAEVLPWSYSSYSSKGIRASRGSVIALMMHINLWLVQFDAQNKEQYYRNVVSLGEELERNNGAYSLLDINRSSVIFAGGSDEGLFEIAQNINFNEIFMMNAKFSDNVSYSCLNKSMPLFCYSGDYLMTLFPMYEDDARKELWFDEKIYSTSVSSSAPKEIKKFWNIDTYGNGTITSNSGNQIVFRYAGALLLYAEALAALGTNDTKACELLNRVRNRAHASEINTSGSELMDAIFWERCRELIGEGHYYYDLVRTGKVYNRNYCMNPMTRTNFNVGAWTWPIHRNALKNNTQIGLNLFWE
# Key:
# Test in all cases: glycan array binding signal (z-score within array); higher = stronger binding
# Conditions in all cases: glycan notation: IUPAC condensed, linker removed
# [1] = target: GlcNAc(b1-2)[GlcNAc(b1-4)]Man(a1-3)[GlcNAc(b1-4)][GlcNAc(b1-2)[GlcNAc(b1-6)]Man(a1-6)]Man(b1-4)GlcNAc(b1-4)GlcNAc
# Summary of the method: (§1)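 Columns mapping to the same glycan were averaged after glycan names were converted to IUPAC-condensed notation. The data come from 3228 arrays in the Consortium for Functional Glycomics database, limited to those with an available protein sequence. Binding is reported as a within-array Z-score averaged across arrays of one protein sequence and across linkers.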
# [2] = target: GlcNAc(b1-2)[GlcNAc(b1-4)]Man(a1-3)[GlcNAc(b1-4)][GlcNAc(b1-2)[GlcNAc(b1-6)]Man(a1-6)]Man(b1-4)GlcNAc(b1-4)[Fuc(a1-6)]GlcNAc
# Summary of the method: as §1
# [3] = target: GlcNAc(b1-2)[GlcNAc(b1-6)]Man(a1-6)[GlcNAc(b1-2)Man(a1-3)]Man(b1-4)GlcNAc(b1-4)GlcNAc
# Summary of the method: as §1
# [4] = target: GlcNAc(b1-2)[GlcNAc(b1-6)]Man(a1-6)[GlcNAc(b1-2)Man(a1-3)]Man(b1-4)GlcNAc(b1-4)[Fuc(a1-6)]GlcNAc
# Summary of the method: as §1
# [5] = target: GlcNAc(b1-2)[GlcNAc(b1-6)]Man(a1-6)[GlcNAc(b1-4)][GlcNAc(b1-2)Man(a1-3)]Man(b1-4)GlcNAc(b1-4)GlcNAc
# Summary of the method: as §1
# GlcNAc(b1-3)Fuc = target: GlcNAc(b1-3)Fuc
# Summary of the method: as §1
# GlcNAc(b1-3)Gal = target: GlcNAc(b1-3)Gal
# Summary of the method: as §1
# [6] = target: GlcNAc(b1-3)Gal(b1-3)GalNAc
# Summary of the method: as §1
# GlcNAc(b1-3)Gal(b1-4)Glc = target: GlcNAc(b1-3)Gal(b1-4)Glc
# Summary of the method: as §1
# [7] = target: GlcNAc(b1-3)Gal(b1-4)GlcNAc
# Summary of the method: as §1
# [8] = target: GlcNAc(b1-3)Gal(b1-4)GlcNAc(b1-2)Man(a1-3)[GlcNAc(b1-3)Gal(b1-4)GlcNAc(b1-2)Man(a1-6)]Man(b1-4)GlcNAc(b1-4)GlcNAc
# Summary of the method: as §1
# [9] = target: GlcNAc(b1-3)Gal(b1-4)GlcNAc(b1-2)Man(a1-3)[GlcNAc(b1-3)Gal(b1-4)GlcNAc(b1-2)Man(a1-6)]Man(b1-4)GlcNAc(b1-4)[Fuc(a1-6)]GlcNAc
# Summary of the method: as §1
# [10] = target: GlcNAc(b1-3)Gal(b1-4)GlcNAc(b1-2)[GlcNAc(b1-3)Gal(b1-4)GlcNAc(b1-6)]Man(a1-6)[GlcNAc(b1-3)Gal(b1-4)GlcNAc(b1-2)Man(a1-3)]Man(b1-4)GlcNAc(b1-4)GlcNAc
# Summary of the method: as §1
# [11] = target: GlcNAc(b1-3)Gal(b1-4)GlcNAc(b1-3)Gal(b1-4)GlcNAc
# Summary of the method: as §1
# [12] = target: GlcNAc(b1-3)Gal(b1-4)GlcNAc(b1-3)Gal(b1-4)GlcNAc(b1-2)Man(a1-3)[GlcNAc(b1-3)Gal(b1-4)GlcNAc(b1-3)Gal(b1-4)GlcNAc(b1-2)Man(a1-6)]Man(b1-4)GlcNAc(b1-4)GlcNAc
# Summary of the method: as §1
# [13] = target: GlcNAc(b1-3)Gal(b1-4)GlcNAc(b1-3)Gal(b1-4)GlcNAc(b1-2)Man(a1-3)[GlcNAc(b1-3)Gal(b1-4)GlcNAc(b1-3)Gal(b1-4)GlcNAc(b1-2)Man(a1-6)]Man(b1-4)GlcNAc(b1-4)[Fuc(a1-6)]GlcNAc
# Summary of the method: as §1
# [14] = target: GlcNAc(b1-3)Gal(b1-4)GlcNAc(b1-3)Gal(b1-4)GlcNAc(b1-2)[GlcNAc(b1-3)Gal(b1-4)GlcNAc(b1-3)Gal(b1-4)GlcNAc(b1-6)]Man(a1-6)[GlcNAc(b1-3)Gal(b1-4)GlcNAc(b1-3)Gal(b1-4)GlcNAc(b1-2)Man(a1-3)]Man(b1-4)GlcNAc(b1-4)[Fuc(a1-6)]GlcNAc
# Summary of the method: as §1
# [15] = target: GlcNAc(b1-3)Gal(b1-4)GlcNAc(b1-3)Gal(b1-4)GlcNAc(b1-3)Gal(b1-4)GlcNAc(b1-2)Man(a1-3)[GlcNAc(b1-3)Gal(b1-4)GlcNAc(b1-3)Gal(b1-4)GlcNAc(b1-3)Gal(b1-4)GlcNAc(b1-2)Man(a1-6)]Man(b1-4)GlcNAc(b1-4)GlcNAc
# Summary of the method: as §1
# [16] = target: GlcNAc(b1-3)Gal(b1-4)GlcNAc(b1-3)Gal(b1-4)GlcNAc(b1-3)Gal(b1-4)GlcNAc(b1-2)Man(a1-3)[GlcNAc(b1-3)Gal(b1-4)GlcNAc(b1-3)Gal(b1-4)GlcNAc(b1-3)Gal(b1-4)GlcNAc(b1-2)Man(a1-6)]Man(b1-4)GlcNAc(b1-4)[Fuc(a1-6)]GlcNAc
# Summary of the method: as §1
# [17] = target: GlcNAc(b1-3)Gal(b1-4)GlcNAc(b1-3)Gal(b1-4)GlcNAc(b1-3)Gal(b1-4)GlcNAc(b1-2)[GlcNAc(b1-3)Gal(b1-4)GlcNAc(b1-3)Gal(b1-4)GlcNAc(b1-3)Gal(b1-4)GlcNAc(b1-6)]Man(a1-6)[GlcNAc(b1-3)Gal(b1-4)GlcNAc(b1-3)Gal(b1-4)GlcNAc(b1-3)Gal(b1-4)GlcNAc(b1-2)Man(a1-3)]Man(b1-4)GlcNAc(b1-4)[Fuc(a1-6)]GlcNAc
# Summary of the method: as §1
# [18] = target: GlcNAc(b1-3)Gal(b1-4)GlcNAc(b1-3)Gal(b1-4)GlcNAc(b1-3)Gal(b1-4)GlcNAc(b1-3)Gal(b1-4)GlcNAc(b1-2)Man(a1-3)[GlcNAc(b1-3)Gal(b1-4)GlcNAc(b1-3)Gal(b1-4)GlcNAc(b1-3)Gal(b1-4)GlcNAc(b1-3)Gal(b1-4)GlcNAc(b1-2)Man(a1-6)]Man(b1-4)GlcNAc(b1-4)GlcNAc
# Summary of the method: as §1
# [19] = target: GlcNAc(b1-3)Gal(b1-4)GlcNAc(b1-3)Gal(b1-4)GlcNAc(b1-3)Gal(b1-4)GlcNAc(b1-3)Gal(b1-4)GlcNAc(b1-2)Man(a1-3)[GlcNAc(b1-3)Gal(b1-4)GlcNAc(b1-3)Gal(b1-4)GlcNAc(b1-3)Gal(b1-4)GlcNAc(b1-3)Gal(b1-4)GlcNAc(b1-2)Man(a1-6)]Man(b1-4)GlcNAc(b1-4)[Fuc(a1-6)]GlcNAc
# Summary of the method: as §1
# [20] = target: GlcNAc(b1-3)Gal(b1-4)GlcNAc(b1-3)Gal(b1-4)GlcNAc(b1-3)Gal(b1-4)GlcNAc(b1-3)Gal(b1-4)GlcNAc(b1-2)[GlcNAc(b1-3)Gal(b1-4)GlcNAc(b1-3)Gal(b1-4)GlcNAc(b1-3)Gal(b1-4)GlcNAc(b1-3)Gal(b1-4)GlcNAc(b1-6)]Man(a1-6)[GlcNAc(b1-3)Gal(b1-4)GlcNAc(b1-3)Gal(b1-4)GlcNAc(b1-3)Gal(b1-4)GlcNAc(b1-3)Gal(b1-4)GlcNAc(b1-2)Man(a1-3)]Man(b1-4)GlcNAc(b1-4)[Fuc(a1-6)]GlcNAc
# Summary of the method: as §1
# [21] = target: GlcNAc(b1-3)Gal(b1-4)GlcNAc(b1-3)Gal(b1-4)GlcNAc(b1-3)GalNAc
# Summary of the method: as §1
# [22] = target: GlcNAc(b1-3)Gal(b1-4)GlcNAc(b1-3)GalNAc
# Summary of the method: as §1
# [23] = target: GlcNAc(b1-3)Gal(b1-4)GlcNAc(b1-3)[GlcNAc(b1-3)Gal(b1-4)GlcNAc(b1-3)]GalNAc
# Summary of the method: as §1
# [24] = target: GlcNAc(b1-3)Gal(b1-4)GlcNAc(b1-6)[Gal(b1-3)]GalNAc
# Summary of the method: as §1
# [25] = target: GlcNAc(b1-3)Gal(b1-4)GlcNAc(b1-6)[GlcNAc(b1-3)Gal(b1-3)]GalNAc
# Summary of the method: as §1
# [26] = target: GlcNAc(b1-3)Gal(b1-4)GlcNAc(b1-6)[GlcNAc(b1-3)]Gal(b1-4)GlcNAc
# Summary of the method: as §1
# GlcNAc(b1-3)GalNAc = target: GlcNAc(b1-3)GalNAc
# Summary of the method: as §1
# GlcNAc(b1-3)Man = target: GlcNAc(b1-3)Man
# Summary of the method: as §1
# [27] = target: GlcNAc(b1-3)[GlcNAc(b1-4)][GlcNAc(b1-6)]GlcNAc
# Summary of the method: as §1
# [28] = target: GlcNAc(b1-3)[GlcNAc(b1-6)]Gal(b1-4)GlcNAc
# Summary of the method: as §1
# [29] = target: GlcNAc(b1-3)[GlcNAc(b1-6)]GalNAc
# Summary of the method: as §1
# [30] = target: GlcNAc(b1-4)Gal(b1-4)GlcNAc
# Summary of the method: as §1
# GlcNAc(b1-4)GlcNAc = target: GlcNAc(b1-4)GlcNAc
# Summary of the method: as §1
# [31] = target: GlcNAc(b1-4)GlcNAc(b1-4)GlcNAc
# Summary of the method: as §1
# [32] = target: GlcNAc(b1-4)GlcNAc(b1-4)GlcNAc(b1-4)GlcNAc(b1-4)GlcNAc
# Summary of the method: as §1
binder,measurement,setting,value
B1,glycan array binding signal (z-score),[1],-0.408
same,glycan array binding signal (z-score),[2],-0.581
same,glycan array binding signal (z-score),[3],-0.173
same,glycan array binding signal (z-score),[4],-0.147
same,glycan array binding signal (z-score),[5],-0.252
same,glycan array binding signal (z-score),GlcNAc(b1-3)Fuc,-0.133
same,glycan array binding signal (z-score),GlcNAc(b1-3)Gal,0.956
same,glycan array binding signal (z-score),[6],0.187
same,glycan array binding signal (z-score),GlcNAc(b1-3)Gal(b1-4)Glc,-0.199
same,glycan array binding signal (z-score),[7],-0.625
same,glycan array binding signal (z-score),[8],0.159
same,glycan array binding signal (z-score),[9],0.079
same,glycan array binding signal (z-score),[10],0.313
same,glycan array binding signal (z-score),[11],-0.161
same,glycan array binding signal (z-score),[12],0.651
same,glycan array binding signal (z-score),[13],0.722
same,glycan array binding signal (z-score),[14],-0.247
same,glycan array binding signal (z-score),[15],0.043
same,glycan array binding signal (z-score),[16],0.037
same,glycan array binding signal (z-score),[17],0.929
same,glycan array binding signal (z-score),[18],-0.175
same,glycan array binding signal (z-score),[19],0.014
same,glycan array binding signal (z-score),[20],1.38
same,glycan array binding signal (z-score),[21],-0.156
same,glycan array binding signal (z-score),[22],0.059
same,glycan array binding signal (z-score),[23],-0.238
same,glycan array binding signal (z-score),[24],-0.321
same,glycan array binding signal (z-score),[25],-0.094
same,glycan array binding signal (z-score),[26],-0.341
same,glycan array binding signal (z-score),GlcNAc(b1-3)GalNAc,0.238
same,glycan array binding signal (z-score),GlcNAc(b1-3)Man,0.147
same,glycan array binding signal (z-score),[27],-0.214
same,glycan array binding signal (z-score),[28],0.095
same,glycan array binding signal (z-score),[29],-0.177
same,glycan array binding signal (z-score),[30],-0.256
same,glycan array binding signal (z-score),GlcNAc(b1-4)GlcNAc,0.058
same,glycan array binding signal (z-score),[31],-0.344
same,glycan array binding signal (z-score),[32],-0.231
